This note sets out measurements from the RNAGym collection of RNA variant scans (doi:10.7554/elife.90254).

Sequences and labels used below:
B1: OR4K15 (parent)
chain: GUUAACGGUCAUAGGCCAUGGAAACUAGGAGCACCAUUUCGCUGCCAGUGAAGAAAUGAACAAAGAAAAUCUGGGCCAGGCAGGCAUCAAAAGAAAUAGUCUUGCGCUCAACCAGAAAGUCUGUAAUCAUUUUAAGGGUA

Read counts are not given, so values of variants with three or more changes are uncertain.

Variants of B1 are the subject of the data set. Briefly: self-cleavage, relative activity (ratio to wild type); higher = more cleavage; in vitro, sequencing; the parent is a self-cleaving ribozyme.
On to GUUAACGGUCAUAGGCCAUGGAAACUAGGAGCACCAUUUCGCCGCCAGUGGAGAAAUGAACAAAGAAAAUCUGGGCCAGGCAGGCAUCAAAAGAAAUAGUCUUGCGCUCAGCCAGAAAGUCUGUAAUCAUUUUAAGGGUA, for which the self-cleavage amounted to 0.04.

With GUUAACGGUCAUAGGCCAUGGAAACUAGGAGCACCAUUUCGCAGCCAGUGAAGAAAUGAACAAAGAAAAUCUGGGCCAGGCAGGCAUCAAAAGAAAUAAUCUUGCGCUCAACCAGAAAGUCUGUAAUCGUUUUAAGGGUA, the self-cleavage worked out at 0.22.

Turning to GUUAACGGUCAUAGGCCAUGGAAACUAGGAGCACCAUUUCGCAGCCAGUGAAGAAAUGAACAAAGAAAAUCUGGGCCAGGCAGGCAUCAAAAGAAAUAGUCUUGCGCUCAGCCAGAAAGUCUGUGAUCAUUUUAAGGGUA, the self-cleavage was determined as 0. On to GUUAACGGUCAUAGGCCAUGGAAACUAGGAGCACCAUUUCGCCGCCUGUGAAGAAAUAAACAAAGAAAAACUGGGCCAGGCAGGCAUCAAAAGAAAUAGCCUUGCGCUCAACCAGAAAGUCUGUAAUCAUUUUAAGGGUA, for which the self-cleavage was found to be 0.73. Under GUUAACGGUCAUAGGCCAUGGAAACUAGGAGCACCAUUUCGCAGCCAGUGAAGAAACGAACAAAGAAAAUCUGGGCCCGGCAGGCAUAAAAAGAAAUAGUCUUGCGCUCAACCAGAAAGUCUGUAAUCAUUUUAAGGGUA stands 0.49; under GUUAACGGUCAUAGGCCAUGGAAACUAGGAGCACCAUUUCGCCGCCAGUGGAGAAAUGAACAAAGAGAACCUGGGCCAGGCAGGCAUCAAAAGAAAUAGUCUUGCGCUCAACCAGAAAGUCUGUAAUCAUUUUAAGGGUA, 0.68; under GUUAACGGUCAUAGGCCAUGGAAACUAGGAGCACCAUUUCGCCGCCAGUGAGGGAAUGAGCAAAGAAAAUCUGGGCCAGGCAGGCAUCAAAAGAAAUAGUCAUGCGCUCAACCAGAAAGUCUGUAAUCAUUUUAAGGGUA, 0.43.

For GUUAACGGUCAUAGGCCAUGGAAACUAGGAGCACCAUUUCGCAGCCAGUGAAGAAAUGAACAAAGAAAAUCUGGGCCAGGCAGGCAUCAAAAGAAAUAGUCUUGCGCUCAACCAGAAAGUCUGUAACCACUUUAAGGGUA, the self-cleavage worked out at 0.76. Regarding GUUAACGGUCAUAGGCCAUGGAAACUAGGAGCACCAUUUCGCCGCCGGUGAAGAAAUGAACAAAGAAAAUCUGGGCCAGGCAGGCAUCAAAGGAAAUAGUCUUGCGCUCAACCAGAAAGUCUGUAAUCAUUUUAAGGGUA, the self-cleavage came out at 1.14. On to GUUAACGGUCAUAGGCCAUGGAAACUAGGAGCACCAUUUCGCCGCCAGUGAAGGAAUGAACAAAGAAAAUCUGGGCCAGGCAGGCACCAAAGGAAAUAGUCUUGCGCUCAACCAGAAAGUCUGUAAUCAUUUUAAGGGUA, for which the self-cleavage came out at 1.02.

For the variant GUUAACGGUCAUAGGCCAUGGAAACUAGGAGCACCAUUUCGCAGCCAGCGAAGAAAUGAACAAAGAAAAUCUGGGCCAGGCAGGCAUCAAAAGAAAUAGUCUUGCGCUCAACCAGAAAGUCUGUAAUCACUUUAAGGGUA, the self-cleavage was found to be 0.83. As for GUUAACGGUCAUAGGCCAUGGAAACUAGGAGCACCAUUUCGCCGCCAGUGAGGAAAUGAACAGAGAAAAUCUGGGCCAGGCAGGCAUCAAAAGAAAUAGUCUUGCGCUCAACCAGAAAGUCUGUAAUCAUUUUAAGGGUA, the self-cleavage is 2.02. Turning to GUUAACGGUCAUAGGCCAUGGAAACUAGGAGCACCAUUUCGCAGCUAGUGAAGAAAUGAACAAAGAAAAUCUGGGCCCGGCAGGCAUCAAAAGAGAUAGUCUUGCGCUCAACCAGAAAGUCUGUAAACAUCUUAAGGGUA, the self-cleavage was 0.47. Under GUUAACGGUCAUAGGCCAUGGAAACUAGGAGCACCAUUUCGCAGCCAGUGAAAAAAUGAACAAAGGAAAUCUGGGCCAGGCAGGCAUCAAAAGAAAUAGUCUUGCGCUCAACCAGAAAGUCUGUAAUCAUUUUAAGGGUA stands 1.36; under GUUAACGGUCAUAGGCCAUGGAAACUAGGAGCACCAUUUCGCAGCCAGUGAAGAAAUGAACAAAGAAAAUCCGGGCCAGGCAGGCAUCAAAAGAAAUAGUCUUGCGCUCAACCAGAAAGUCUGUAAUCAUUUUAAGGGUU, 0.18.

In the case of GUUAACGGUCAUAGGCCAUGGAAACUAGGAGCACCAUUUCGCCGCCAGUGAAGGGAUGAACAAAGAAAAUCUGGGCCAGGCAGGCAUCAAAAGAAAUAGUCUUGCGCUCAACCAGAAAGUCUGUAAUCAUUUUAAGGGUA, the self-cleavage turned out to be 1.39. Consider GUUAACGGUCAUAGGCCAUGGAAACUAGGAGCACCAUUUCGCCGCCAGUGAAGGAAUGAACAAAGAAAAUCUGGGCCAGGCAGGCAUCAAAAGAAAUAGUCUUGCGCUCAACCAGAAAGUCUGCAAUCAUUUUAAGGGUA, for which the self-cleavage worked out at 0.79. On to GUUAACGGUCAUAGGCCAUGGAAACUAGGAGCACCAUUUCGCCGCCAGUGAAGAGAUGAGCAAAGAAAAUCUGGGCCAGGCAGGCAUCAAAAGAAAUAGUCUUGCGCUCUACCAGAAAGUCUGUAAUCAUUUUAAGGGUA, for which the self-cleavage amounted to 1.14.

In the case of GUUAACGGUCAUAGGCCAUGGAAACUAGGAGCACCAUUUCGCAGCCAGUGAAGAAAUGAACAAAGAAAAUCUGGGCCAAGCAGGCAUCUAAAGAAAUAGUCUUGCGCUCAACCAGAAAGUCUGUAAUCAUUUUAAGGGUA, the self-cleavage was 0.09. With GUUAACGGUCAUAGGCCAUGGAAACUAGGAGCACCAUUUCGCCGCCAGUGGAGAAAUGAACAAAGAAAAUCUGGGCCAGGCAGGCAUCAAAAGAAAUAGUCUUGCGCUCAACCAGAACGUCUGUAAUCAUUUUAAGGGUA, the self-cleavage came out at 0.63. In the case of GUUAACGGUCAUAGGCCAUGGAAACUAGGAGCACCAUUUCGCAGCUAGUGAAGGAAUGAACAAAGAAAAUCUGGGCCAGGCAGGCGUCAAAAGAAAUAGUCUUGCGCUCAACCAGAAAGUCUGUAGUCAUUUUAAGGGUA, the self-cleavage stood at 0.63. Regarding GUUAACGGUCAUAGGCCAUGGAAACUAGGAGCACCAUUUCGCAGCCAGUGAAGAAAAGAACAAAGAAAAUCUGGGCCAGGCAGGCAUCAAAAGAAAUAGUCCUGCGCUCAACCAGAAAGUCUGUAAUCAUUUUAAGGGUA, the self-cleavage was 2.05. In the case of GUUAACGGUCAUAGGCCAUGGAAACUAGGAGCACCAUUUCGCAGCCAGUGAAGAAAUGAACAAAGAAAAUCUGGGCCAGGCAGGCAUCAAAAGAAAUAGUCUUGCGCUCAGCCGGGAAGUCUGUAAUCAUUUUAAGGGUA it was 0.02; in that of GUUAACGGUCAUAGGCCAUGGAAACUAGGAGCACCAUUUCGCCGCCGGUGAAGAAAUGAACAAAGAAAAUCUGGGCCAGGCAGGCAUCAAAAGAAAUAGUCUUGCGCUCAACCGGAAAGUCUGUAAUCAUUUUAAGGGUA, 0.17. For GUUAACGGUCAUAGGCCAUGGAAACUAGGAGCACCAUUUCGCAGCCAGUGAAGAAAUGAAUAAAGAAAAUCUGGGCCAGGCAGGCAUCAAACGAAAUAGUCUUGCGCUCAACCAGAAAGUCUGUAAUCAUUUUAAGGGUA, the self-cleavage was 2.52.

Take GUUAACGGUCAUAGGCCAUGGAAACUAGGAGCACCAUUUCGCCGCCUGUGAAGAAAUGAGCAAAGAAAAUCAGGGCCAGGCAGGCAUCAAAAGAAAUAGUCUUGCGCUCAACCAGAAAGUCUGUAAUCAUUUUAAGGGUA: the self-cleavage worked out at 0.11. In the case of GUUAACGGUCAUAGGCCAUGGAAACUAGGAGCACCAUUUCGCAGCCAGUGAAGAAAUGAACAAAGAAAAUCUGGGCCAGGCAGGCAUCAAGAGAAAUAGUCUUGCGCUCAACAAGAAGGUCUGUAAUCAUUUUAAGGGUA, the self-cleavage was 0.01. With GUUAACGGUCAUAGGCCAUGGAAACUAGGAGCACCAUUUCGCAGCCAGUGAAGAAAUGAACAAAGAAAAUCUGGGCCAGGCAGGCAUCAAAAGAAAUAGUCUUGCGCUCAACCAGAAAGUCGGUAAUCAUCUUAAGGGUA, the self-cleavage amounted to 0.87. As to GUUAACGGUCAUAGGCCAUGGAAACUAGGAGCACCAUUUCGCCGCCAGUGAGGAAAUGAACAAAGAAAAUCUGGGCCAGGCAGGCAUCGAAAGAAAUAGUCUUGCGCUCAACCAGAAAGUCUGUAAUCAUUUUAAGGGUA, the self-cleavage worked out at 0.81.

On to GUUAACGGUCAUAGGCCAUGGAAACUAGGAGCACCAUUUCGCCGCCUGUGAAGAAAUGAACAAAGAAAAUCUGGGCCAGGCAGGCAUCGAAAGAAAUAGUCUUGCGCUCAACCAGAAAGUCUGCAAUCAUUUUAAGGGUA, for which the self-cleavage stood at 0.23.

Consider GUUAACGGUCAUAGGCCAUGGAAACUAGGAGCACCAUUUCGCCGCCGGUGAUGAAAUGAACAAAGAAAAUCUGGGCCAGGCAGGCAUCAAAAGAGAUAGUCUUGCGCUCAACCAGAAAGUCUGUAAUCAUUUUAAGGGUA, for which the self-cleavage is 1.87. For the variant GUUAACGGUCAUAGGCCAUGGAAACUAGGAGCACCAUUUCGCCGCCAGUGAAGAGAUGAACAAAGAAAAUCUGGGCCAGGCAGGCAUCAAAAGAAAUAGUCUUGCGCUCAACCAGGAAGUCUGUGAUCAUUUUAAGGGUA, the self-cleavage was found to be 0.15.

As for GUUAACGGUCAUAGGCCAUGGAAACUAGGAGCACCAUUUCGCAGCCAGUGAAGAAAUGAACAAAGAAAAUCUGGGCCAGGCAGGCAUCAAAAGAAAUAGUCUUGCGCUCAACCAGAAAGUCUGUGAUCAUUUUAGGGGUA, the self-cleavage came to 0.69. Consider GUUAACGGUCAUAGGCCAUGGAAACUAGGAGCACCAUUUCGCCGCCAGUGAGGAAAUGAGCGAAGAAAAUCUGGGCCAGGCAGGCAUCAAAAGGAAUAGUCUUGCGCUCAACCAGAAAGUCUGUAAUCGUUUUAAGGGUA, for which the self-cleavage is 0.17. On to GUUAACGGUCAUAGGCCAUGGAAACUAGGAGCACCAUUUCGCCGCCAGUGAAGACAUGAACAAAGGAAAUCUGGGCCAGGCAGGCAUCAAUAGAAAUAGUCUUGCGCUCAACCAGAAAGUCUGUAAUCAUUUUAAGGGUA, for which the self-cleavage was found to be 2.1. In the case of GUUAACGGUCAUAGGCCAUGGAAACUAGGAGCACCAUUUCGCCGCCAGUGAAGGAAUGAACAAAGAAAUUCUGGGCCAGGCAGGCAUCAAAAGAAAUAGCCUUGCGCUCAACCAGAAAGUCUGUAAUCAUUUUAAGGGUA it was 1.88. Consider GUUAACGGUCAUAGGCCAUGGAAACUAGGAGCACCAUUUCGCAGCCAGUGAAGAAAUGAACAAAGAAAACCUGGGCCAGGCAGGCAUCAAAAGAAAUAGUCUUGCGCUCAACCAGAAAGCCUGCAAUCAUUUUAAGGGUA, for which the self-cleavage is 0.03. Take GUUAACGGUCAUAGGCCAUGGAAACUAGGAGCACCAUUUCGCAGCCAGUGAAGAAAUGAACAAAGAAAAUCUGGGCCAGGCAGGCAUCAAAAGAAAUAGUCUUGCGCUCAACCAGGGAGUCUGUAAUCAUUUUAAGGGUA: the self-cleavage came to 0.59.

With GUUAACGGUCAUAGGCCAUGGAAACUAGGAGCACCAUUUCGCAGCCAGUGAAGAAAUGAACAAAGAAAAUCUGGGCCAGGCAGGCAUCAAAAGAAAUAGCCUUGCGCCCAACCAGAAAGUCUGUAAUCACCUUAAGGGUA, the self-cleavage was 0. Regarding GUUAACGGUCAUAGGCCAUGGAAACUAGGAGCACCAUUUCGCAGCCAGUGAAGAAAUGAACAAAGAAAAUCUGGGCCAGGCAGGCAUCAGAAGAAGUAGUCUUGCGCUUAACCAGAAAGUCUGCAGUCAUUUUAAGGGUA, the self-cleavage came out at 0.14. Regarding GUUAACGGUCAUAGGCCAUGGAAACUAGGAGCACCAUUUCGCAGCCAGUGAAGAAAUGAACAAAGAAAAUCUGGGCCAGGCAGGCAUCAAAAGAAAUAGACUCGCGCUCAACCAGAAAGUCUGUAAUCAUUUUAAGGGUA, the self-cleavage is 0.3.
